# The RNAGym collection of RNA variant scans (doi:10.7554/elife.90254)
# Read counts are not given, so values of variants with three or more changes are uncertain.
# B1: LINE1-mini (parent)
# chain: GGCAGAGCUCAACACAGCGUGGCAAAGUGGCUGUGGCUAGACUGCC
# Variants of: B1
# Assay: self-cleavage, relative activity (ratio to wild type); higher = more cleavage; in vitro, sequencing; the parent is a self-cleaving ribozyme
row,Variant,self-cleavage
1,C3U U9A C10A G17C C31U C45G,0.03
2,C3U G19A G29A G30U,0.53
3,C3U G21U U34C,0.39
4,C3U G17U G40A,0.02
5,C3U G17U G40U,0.18
6,C3U C23A C31G,0.05
7,C3U C23A U32A,0.2
8,C3U G7A A16C,0.05
9,C3U C10A C13G C15U G19A U34A A41G U43G,0.01
10,C3U G5A U9A C42A,0.27
11,C3U G7C G21U,0.09
12,C3U G21A A25U G36C U38C C42U,0.05
13,C3U G22U G33U U38G,0.03
14,C3U C10A G17U,0.07
15,C3U C13U G19U G36U,0.25
16,C3U G7A U20C A26U G40U C46U,0.06
17,C3U C10U C31A,0.04
18,C3U G5A C45U,0.12
19,C3U G5C G30U C37U,0.2
20,C3U G7A A26G,0.21
21,C3U C23A G30A U32G,0.13
22,C3U G36C A41C,0.04
23,C3U C10U G22A G30A,0.22
24,C3U G36U G44U,0.65

row,Variant,self-cleavage
1,C3U C13U G17U U38A,0.31
2,C3U C15U C23G,0.9
3,C3U C10G A16C U20A A25C G44A,0.03
4,C3U G21C A26C G40C,0.06
5,C3U G22A C45A,0.12
6,C3U C10U U20C G22A G29C G36C,0.01
7,C3U G29U C42U,0.31
8,C3U G7U C13U C46U,0.06
9,C3U G5U G36A C37G A41U,0.12
10,C3U G7A U28G G36U,0.03
11,C3U G21A C37A,0.51
12,C3U G19C G29C,0.5
13,C3U G21A G35U G44A,0.08
14,C3U G7U C10G G35C,0.01
15,C3U G5A C10A U38G A39C,0.03
16,C3U C10U C15U C23U U38C,0.07
17,C3U G7A U9G C31A,0.11
18,C3U C10G G29A C31G,0.03
19,C3U G17U G21U U38G A41C,0.02
20,C3U C10U A11C A14U A16U U32G,0.03
21,C3U G21A G29C C37U C45U,0.06
22,C3U C10A G17C G19U A25U,0.06
23,C3U C10U A26C G27U C31U,0.09
24,C3U C8G A25U G33U A39U,0.06

row,Variant,self-cleavage
1,C3U C8U U20A,0.01
2,C3U G7U C8U A14U A16C G22U,0.15
3,C3U C18G G30C,1.06
4,C3U G29A C37G,0.01
5,C3U G30C A39C,0.05
6,C3U C10U C13U U34A A41C,0.02
7,C3U G7C C8G C23A G36U,0.08
8,C3U C10U A26C G29C U32C,0.03
9,C3U G19A C23G A25C,0.67
10,C3U G36C A39U,0.15
11,C3U G7C G21C A24C A39C G44U,0.06
12,C3U U9A G33U,0.26
13,C3U C15U A26C,0.5
14,C3U G7U U32C,0.1
15,C3U C13U G21A,0.04
16,C3U G33U U43C,0
17,C3U U9A G44U,0.08
18,C3U G5U G7A G27C,0.17
19,C3U C23A A24U G44C,0.39
20,C3U C8U G33C,0.12
21,C3U C10G A25U U28A C45U,0.04
22,C3U C15A A16C G36C C46U,0.01
23,C3U G5U C23A G44A,0.05
24,C3U G17A G27U,0.07

row,Variant,self-cleavage
1,C3U G5U A12G,0.03
2,C3U C23G C42A,0.43
3,C3U G21A G22A A41U,0.69
4,C3U C10A C15U U20C G36U C37U,0.01
5,C3U G21U C37U,0.02
6,C3U G29C C37A C42A U43G,0.04
7,C3U G17C G27C A39U C45U,0.08
8,C3U G19A A26C A39U,0.12
9,C3U C37G A41G,0.08
10,C3U G36A C46A,0.17
11,C3U U9C U32C,0.02
12,C3U G19U U28A G33A C45A,0.02
13,C3U G5C G29U,0.1
14,C3U C13G U20G,0.1
15,C3U C10U C42G,0.02
16,C3U G19C C45U,0.05
17,C3U C18U G35U,0.07
18,C3U G17U G35U C37U,0.05
19,C3U G17C U28A A39C,0.01
20,C3U C10A A11C G36C G44U,0.01
21,C3U C18U G19A G27U G33U G36C,0.01
22,C3U C15G C37G G40U,0.02
23,C3U G7C G17U,0.08
24,C3U G17A A24G,0.05

row,Variant,self-cleavage
1,C3U C23U A25C,0.63
2,C3U G5C C15U C18G G21C A24C G27C G40C,0.21
3,C3U C23A A41C,0.07
4,C3U C10U A25U U28G G35U C45A,0.04
5,C3U U9C C13U C15A C42U C45U,0.02
6,C3U G19C A24G,0.07
7,C3U G27A G44U,0.37
8,C3U C13A C23U A24U U28A C31A A41G C42U,0.07
9,C3U C23A U28A U34G,0.02
10,C3U G7U G22C C23U,0.08
11,C3U C37U A41U,0.04
12,C3U G27U U32C U43G,0.08
13,C3U C10U A39U C42G,0.06
14,C3U G21U A39U C45A,0.29
15,C3U G22A G27A U43C,0.01
16,C3U G7A A11G,0.09
17,C3U G5C A6G G7U U34C,0.03
18,C3U G5C A12G,0.03
19,C3U C13A A39U,0.38
20,C3U C15U G40A C45U,0.08
21,C3U G17U G21C,0.24
22,C3U G19A C42G,0.2
23,C3U C15A G19U G27U,0.02
24,C3U G17A A24G U43G,0.01

row,Variant,self-cleavage
1,C3U U9A G40A,0.18
2,C3U C13A C23U A24C,0.28
3,C3U G19U U20C,0.35
4,C3U C10A G33A A39C U43A,0.01
5,C3U G7C U9G C10A G40A A41C,0.02
6,C3U C10U A11C,0.03
7,C3U G5U A25U C45A,0.04
8,C3U C18U G19A U34C,0.04
9,C3U G7A C23U G35U C37G C42G,0.02
10,C3U C18U G29A G30C,0.22
11,C3U G29U C31G U38A,0.35
12,C3U G17A A24U C45U,0.06
13,C3U G5C A16U U34G C45U C46U,0.03
14,C3U G7U A11G G19A G21A G22U C31A,0.02
15,C3U C10G G22U C45U,0.03
16,C3U C15U C18A G44C,0.05
17,C3U G21U C37U A39U C42G,0.01
18,C3U G17U U32G U34C,0.01
19,C3U G7A A25C C31A,0.15
20,C3U G27U G29A G30C C37G,0.15
21,C3U U9C G19A C23A U32G G36C,0.01
22,C3U C10A C13A U28G G36A,0.03
23,C3U G27U C31U G33A G40A,0.08
24,C3U G5C G7C G30U G36C,0.17

row,Variant,self-cleavage
1,C3U C15U G30A,0.08
2,C3U C15A U28G C45A,0.13
3,C3U G7A A11C A25C,0.03
4,C3U G5A C10A G17U U28C C31G,0.02
5,C3U G7C G29U G36U C42U C46A,0.02
6,C3U C8G A24G C42U,0.19
7,C3U G17U G22U C23U,0.22
8,C3U G5U C13A G29C,0.05
9,C3U C23A G40U,0.11
10,C3U C23A G40C,0.05
11,C3U G21A C42U,0.35
12,C3U G22U A41U,0.33
13,C3U G5U U9C C10U,0.03
14,C3U G33U G36U,0.02
15,C3U G5U C10A C45G,0.02
16,C3U G19A A25G G27C G30C C45U,0.18
17,C3U C15A G21U G30A,0.06
18,C3U U9A U20A U38C,0.1
19,C3U G21C A24U,0.4
20,C3U C8U C10A,0.03
21,C3U G29A U43C,0.07
22,C3U C15A G40C,0
23,C3U G7C C13A G19U A26U G35A,0.06
